Reference: the supplement of paper PMC4967469
A lower IC50 marks a more sensitive line; fits outside the tested doses are given as limits. AUC is the area under the same curve over the 256-fold range up to the top dose, as a fraction; values near 1 show little effect. For part of these data: An inferred top dose is not printed in the source and was worked back from the curve model. For part of these data: An entry number marks a drug with two screens in the source, which often give different values.

How the values were obtained:
Test in all cases: Viability of human cancer cell lines after 72 h of drug (GDSC screen)
BX-912 = compound: O=C(Nc1cccc(Nc2ncc(Br)c(NCCc3cnc[nH]3)n2)c1)N1CCCC1 [BX-912]; conditions: top dose 10.24 µM; top dose inferred
Description: (§1)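 Human cancer cell lines in 384-well plates, medium with 10% serum, drug for 72 h over a 256-fold dose range (nine 2-fold or five 4-fold steps up to the top dose). Adherent lines were fixed and stained with the nucleic acid dye Syto60, suspension lines read with resazurin; signal relative to control wells, capped at 0 and 100%. One two-parameter sigmoid per drug and line, fitted in a mixed model over all curves with the slope shared within a line.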

VNLG/124 = compound: CCCC(=O)OCc1ccc(OC(=O)/C=C(C)/C=C/C=C(C)/C=C/C2=C(C)CCCC2(C)C)cc1 [VNLG/124]; conditions: top dose 5.12 µM; top dose inferred
Description: as §1

Bleomycin = compound: Cc1c(N)nc([C@H](CC(N)=O)NC[C@H](N)C(N)=O)nc1C(=O)N[C@H](C(=O)N[C@H](C)[C@@H](O)[C@H](C)C(=O)N[C@H](C(=O)NCCc1nc(-c2nc(C(=O)NCCC[S+](C)C)cs2)cs1)[C@@H](C)O)[C@@H](OC1OC(CO)C(O)C(O)C1OC1OC(CO)C(O)C(OC(N)=O)C1O)c1cnc[nH]1 [Bleomycin]
Description: as §1

OSI-930 = compound: O=C(Nc1ccc(OC(F)(F)F)cc1)c1sccc1NCc1ccnc2ccccc12 [OSI-930]; conditions: top dose 10.24 µM
Description: as §1

Elesclomol = compound: CN(NC(=O)CC(=O)NN(C)C(=S)c1ccccc1)C(=S)c1ccccc1 [Elesclomol]; conditions: top dose 0.2 µM; top dose inferred
Description: as §1

LAQ824 = compound: O=C(/C=C/c1ccc(CN(CCO)CCc2c[nH]c3ccccc23)cc1)NO [LAQ824]; conditions: top dose 1.024 µM; top dose inferred
Description: as §1

NSC-87877 = compound: O=S(=O)(O)c1ccc2cc(N=Nc3cc(S(=O)(=O)O)c4cccnc4c3O)ccc2c1 [NSC-87877]; conditions: top dose 16 µM; top dose inferred
Description: as §1

Masitinib = compound: Cc1ccc(NC(=O)c2ccc(CN3CCN(C)CC3)cc2)cc1Nc1nc(-c2cccnc2)cs1 [Masitinib]; conditions: top dose 20 µM
Description: as §1

Tamoxifen = compound: CC/C(=C(\c1ccccc1)c1ccc(OCCN(C)C)cc1)c1ccccc1 [Tamoxifen]; conditions: top dose 5 µM
Description: as §1

HG-5-88-01 = compound: COc1cc(N2CCC(C(N)=O)CC2)ccc1Nc1nc(N)c(Cl)c(Nc2ccccc2S(=O)(=O)C(C)C)n1 [HG-5-88-01]; conditions: top dose 10 µM; top dose inferred
Description: as §1

[1] = top dose 50 µM, screen: GDSC drug entry 1378, top dose inferred
[2] = top dose 64 µM, screen: GDSC drug entry 190

Row | Cell Line | AUC (BX-912) | IC50 (BX-912) [µM] | AUC (VNLG/124) | IC50 (VNLG/124) [µM] | AUC (Bleomycin; [1]) | IC50 (Bleomycin; [1]) [µM] | AUC (Bleomycin; [2]) | IC50 (Bleomycin; [2]) [µM] | AUC (OSI-930) | IC50 (OSI-930) [µM] | AUC (Elesclomol) | IC50 (Elesclomol) [µM] | AUC (LAQ824) | IC50 (LAQ824) [µM] | AUC (NSC-87877) | IC50 (NSC-87877) [µM] | AUC (Masitinib) | IC50 (Masitinib) [µM] | AUC (Tamoxifen) | IC50 (Tamoxifen) [µM] | AUC (HG-5-88-01) | IC50 (HG-5-88-01) [µM]
1 | LS-180 (large intestine, adherent) | 0.976 | > 10.2 | 0.982 | > 5.12 | 0.36 | 1.21 | 0.291 | 0.939 | 0.975 | > 10.2 | 0.971 | > 0.2 | 0.358 | 0.0245 | 0.949 | > 16 | 0.953 | > 20 | 0.983 | > 5 | 0.973 | > 10
2 | SF126 (glioma, adherent) | 0.913 | > 10.2 | 0.986 | > 5.12 | 0.25 | 0.568 | 0.478 | 3.47 | 0.983 | > 10.2 | 0.245 | 0.00219 | 0.542 | 0.084 | 0.978 | > 16 | 0.889 | > 20 | 0.984 | > 5 | 0.954 | > 10
3 | MZ1-PC (pancreas, adherent) | 0.826 | 8.31 | 0.938 | > 5.12 | 0.42 | 1.79 | 0.21 | 0.439 | 0.912 | > 10.2 | 0.812 | 0.141 | 0.49 | 0.0599 | 0.913 | > 16 | 0.863 | > 20 | 0.966 | > 5 | 0.741 | 3.69
4 | H3118 (head and neck, adherent) | 0.864 | > 10.2 | 0.975 | > 5.12 | 0.205 | 0.379 | 0.37 | 1.69 | 0.98 | > 10.2 | 0.576 | 0.0206 | 0.226 | 0.00931 | 0.851 | 14.1 | 0.899 | > 20 | 0.888 | > 5 | 0.732 | 3.07
5 | LK-2 (lung squamous cell carcinoma, adherent) | 0.6 | 1.18 | 0.987 | > 5.12 | 0.235 | 0.565 | 0.383 | 1.95 | 0.956 | > 10.2 | 0.6 | 0.0232 | 0.281 | 0.016 | 0.905 | > 16 | 0.757 | 6.54 | 0.988 | > 5 | 0.987 | > 10
6 | A388 (skin, adherent) | 0.901 | > 10.2 | 0.978 | > 5.12 | 0.515 | 3.45 | 0.271 | 0.8 | 0.956 | > 10.2 | 0.474 | 0.0105 | 0.508 | 0.0673 | 0.983 | > 16 | 0.928 | > 20 | 0.964 | > 5 | 0.957 | > 10
7 | MC-CAR (haematopoietic neoplasm, suspension) | 0.775 | 3.6 | 0.967 | > 5.12 | 0.908 | > 50 | 0.349 | 1.61 | 0.917 | > 10.2 | 0.567 | 0.0186 | 0.343 | 0.0248 | 0.989 | > 16 | 0.842 | 11.9 | 0.973 | > 5 | 0.964 | > 10
8 | A427 (non-small cell lung carcinoma, adherent) | 0.906 | > 10.2 | 0.987 | > 5.12 | 0.483 | 2.81 | 0.033 | < 0.25 | 0.957 | > 10.2 | 0.373 | 0.00555 | 0.459 | 0.0493 | 0.987 | > 16 | 0.955 | > 20 | 0.962 | > 5 | 0.985 | > 10
9 | RL (B-cell lymphoma, suspension) | 0.814 | 5.01 | 0.967 | > 5.12 | 0.827 | 27.2 | 0.896 | > 64 | 0.967 | > 10.2 | 0.61 | 0.0243 | 0.606 | 0.122 | 0.988 | > 16 | 0.85 | 13.2 | 0.987 | > 5 | 0.968 | > 10
10 | TOV-112D (ovary, adherent) | 0.781 | 4.28 | 0.978 | > 5.12 | 0.437 | 2.1 | 0.18 | 0.432 | 0.942 | > 10.2 | 0.576 | 0.0202 | 0.364 | 0.0269 | 0.952 | > 16 | 0.877 | > 20 | 0.928 | > 5 | 0.958 | > 10
11 | NCI-H2087 (lung adenocarcinoma, semi-adherent) | 0.869 | > 10.2 | 0.984 | > 5.12 | 0.7 | 12 | 0.446 | 2.81 | 0.902 | > 10.2 | 0.941 | > 0.2 | 0.514 | 0.0699 | 0.986 | > 16 | 0.877 | > 20 | 0.984 | > 5 | 0.944 | > 10
12 | OS-RC-2 (kidney, adherent) | 0.926 | > 10.2 | 0.978 | > 5.12 | 0.561 | 4.95 | 0.479 | 3.42 | 0.975 | > 10.2 | 0.669 | 0.0458 | 0.415 | 0.0338 | 0.977 | > 16 | 0.86 | > 20 | 0.974 | > 5 | 0.863 | > 10
13 | TYK-nu (ovary, adherent) | 0.983 | > 10.2 | 0.985 | > 5.12 | 0.391 | 1.53 | 0.458 | 3.05 | 0.979 | > 10.2 | 0.516 | 0.0139 | 0.621 | 0.142 | 0.985 | > 16 | 0.869 | > 20 | 0.972 | > 5 | 0.94 | > 10
14 | DMS-114 (small cell lung carcinoma, adherent) | 0.892 | > 10.2 | 0.983 | > 5.12 | 0.371 | 1.3 | 0.589 | 7.28 | 0.972 | > 10.2 | 0.483 | 0.0111 | 0.821 | 0.715 | 0.985 | > 16 | 0.906 | > 20 | 0.982 | > 5 | 0.944 | > 10
15 | SK-MEL-30 (melanoma, adherent) | 0.96 | > 10.2 | 0.98 | > 5.12 | 0.648 | 8.21 | 0.229 | 0.618 | 0.981 | > 10.2 | 0.754 | 0.0708 | 0.44 | 0.0436 | 0.822 | 10 | 0.876 | > 20 | 0.984 | > 5 | 0.978 | > 10
16 | Farage (B-cell lymphoma, suspension) | 0.769 | 3.2 | 0.993 | > 5.12 | 0.992 | > 50 | 0.154 | 0.462 | 0.868 | 6.64 | 0.608 | 0.0234 | 0.37 | 0.0301 | 0.992 | > 16 | 0.892 | 16.1 | 0.992 | > 5 | 0.989 | > 10
17 | MMAC-SF (melanoma, adherent) | 0.972 | > 10.2 | 0.987 | > 5.12 | 0.881 | > 50 | 0.763 | 23.9 | 0.983 | > 10.2 | 0.748 | 0.067 | 0.496 | 0.0623 | 0.979 | > 16 | 0.891 | > 20 | 0.962 | > 5 | 0.806 | 5.36
18 | RKN (ovary, adherent) | 0.793 | 4.99 | 0.984 | > 5.12 | 0.198 | 0.37 | 0.807 | 35.3 | 0.973 | > 10.2 | 0.579 | 0.0208 | 0.571 | 0.101 | 0.983 | > 16 | 0.889 | > 20 | 0.981 | > 5 | 0.872 | > 10
19 | ABC-1 (lung adenocarcinoma, adherent) | 0.762 | 4.37 | 0.958 | > 5.12 | 0.731 | 16.5 | 0.747 | 24.1 | 0.912 | > 10.2 | 0.157 | 0.000833 | 0.407 | 0.0337 | 0.982 | > 16 | 0.839 | 17.8 | 0.943 | > 5 | 0.829 | 8.02
20 | SJRH30 (rhabdomyosarcoma, adherent) | 0.859 | 8.92 | 0.986 | > 5.12 | 0.829 | 32.5 | 0.248 | 0.731 | 0.976 | > 10.2 | 0.365 | 0.00521 | 0.366 | 0.0269 | 0.983 | > 16 | 0.898 | > 20 | 0.978 | > 5 | 0.705 | 2.42
21 | NCI-H720 (lung carcinoid, suspension) | 0.99 | > 10.2 | 0.977 | > 5.12 | 0.975 | > 50 | 0.909 | > 64 | 0.983 | > 10.2 | 0.849 | 0.131 | 0.977 | > 1.02 | 0.982 | > 16 | 0.984 | > 20 | 0.987 | > 5 | 0.984 | > 10
